Data published in the antibiotic and cytotoxicity screens of Wong et al. (2023).
This is one part of the list.

Assays:
[1] = tested on: HSkMC (human skeletal muscle cells); assay: cytotoxicity call (relative viability < 0.9); settings: 10 µM
[2] = tested on: HepG2; assay: cytotoxicity call (relative viability < 0.9); settings: 10 µM
[3] = tested on: S. aureus RN4220; assay: growth inhibition call (relative growth <= 0.2); settings: 50 µM

CC(=O)OC1CCC2(C)C(=CC=C3C2CCC2(C)C3CCC2C(C)C=CC(C)C(C)C)C1(C)C (configuration not stated)
inactive: cytotoxicity call [1] | cytotoxicity call [2] | growth inhibition call [3]

Cc1[nH]c(=O)[nH]c(=O)c1CCC(=O)O
inactive: cytotoxicity call [1] | cytotoxicity call [2] | growth inhibition call [3]

COc1ccc(S(=O)(=O)Nc2ccc3c(c2)C(=O)N([C@H](C)CO)C[C@@H](C)[C@@H](CN(C)S(=O)(=O)c2ccc(F)cc2)O3)cc1
inactive: cytotoxicity call [1] | cytotoxicity call [2] | growth inhibition call [3]

COCC#Cc1ccc2c(c1)O[C@@H](CN(C)S(=O)(=O)c1ccc(C)cc1)[C@H](C)CN([C@H](C)CO)S2(=O)=O
inactive: cytotoxicity call [1] | cytotoxicity call [2] | growth inhibition call [3]

Cc1noc(C)c1NC(=O)N(C)C[C@@H]1OCCCC[C@@H](C)Oc2ccc(NC(=O)Nc3ccc(F)cc3)cc2C(=O)N([C@@H](C)CO)C[C@H]1C
inactive: cytotoxicity call [1] | cytotoxicity call [2] | growth inhibition call [3]

C[C@@H]1CN([C@H](C)CO)C(=O)c2cccc(NS(=O)(=O)c3ccc(F)cc3)c2O[C@H]1CN(C)CC1CC1
inactive: cytotoxicity call [1] | cytotoxicity call [2] | growth inhibition call [3]

C[C@@H]1CN([C@H](C)CO)C(=O)c2cc(C#CCN(C)C)cnc2O[C@@H]1CN(C)S(C)(=O)=O
inactive: cytotoxicity call [1] | cytotoxicity call [2] | growth inhibition call [3]

CC(C)NC(=O)Nc1ccc2c(c1)C(=O)N([C@H](C)CO)C[C@H](C)[C@H](CN(C)C(=O)Nc1ccc(C(F)(F)F)cc1)OCCCC[C@@H](C)O2
inactive: cytotoxicity call [1] | cytotoxicity call [2] | growth inhibition call [3]

C[C@H]1CN([C@@H](C)CO)C(=O)Cc2cc(NC(=O)Cn3cnnn3)ccc2O[C@@H]1CN(C)Cc1ccc(C(=O)O)cc1
inactive: cytotoxicity call [1] | cytotoxicity call [2] | growth inhibition call [3]
